{"source": "PubChem BioAssay AID624173", "about": "(National Center for Advancing Translational Sciences (NCATS), 2012)", "note": "About 490 (0.12%) of roughly 410,000 compounds were called active. This list was built around the results that the source calls inconclusive (neither active nor inactive); the mix of calls is not that of the screen. Calls come from the whole dose curve; as a rule, active = well fitted inhibition curve with a large enough effect; inconclusive = small, poorly fitted or top-dose-only effect; inactive = flat fitted curve, though single readings scatter. Potencies of inconclusive entries are doubtful fits and often do not repeat. % is set by controls: 0 for no effect and ±100 for the full control effect; potency is the fitted concentration of half-maximal effect; tags give direction and shape of the fitted curve."}
{"biological_target": "pyruvate kinase (Trypanosoma brucei) (UniProt Q57TT1)", "assay": "qHTS of Trypanosoma Brucei Inhibitors; note: nearly all actives have a fitted effect of over 50% in size", "details": "TbPYK enzyme, Kinase-Glo Plus ATP luminescence, 45 min; series mostly up to 76.8 µM; activity, negative = inhibition: at the top concentration", "method_in_brief": "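Assay buffer: 50 mM TEA pH 7.2, 100 mM KCl, 10 mM MgCl2, 0.05% BSA, 0.01% Tween-20. Pyruvate kinase from T. brucei plus substrate met compound, then ADP (130 uM final). Luminescence was read post 45 min RT.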"}
{"molecule": "CCn1c(CNC(=O)Cc2ccc(OC)cc2)n[nH]c1=S", "Potency": "inconclusive: 11.2 µM [inhibitor, partial curve, poor fit]"}
{"molecule": "CN(C)CCC(O)(c1ccccc1)c1ccccc1Cl", "note": "(stereo unspecified)", "Potency": "inconclusive: 50.1 µM [inhibitor, single point]"}
{"molecule": "CCOC(=O)c1sc(NC(=O)/C=C/c2ccc(F)cc2)nc1C", "activity, negative = inhibition": "inactive: -2.81%"}
{"molecule": "Cc1cc(C(=O)N2CCN(c3ccccc3)CC2)c2c(C)nn(-c3cccc(F)c3)c2n1", "activity, negative = inhibition": "inactive: 1.32%"}
{"molecule": "CCOC(=O)C(CC)n1cnc2c(cnn2-c2ccc(Cl)cc2)c1=O", "note": "(stereo unspecified)", "activity, negative = inhibition": "inactive: 2.05%"}
{"molecule": "CC1=C(C)C(=O)N(c2ccccn2)C1=O", "activity, negative = inhibition": "inactive: -6.48%"}
{"molecule": "C/C(=N/NC(=O)c1cccc(N2CCCC2=O)c1)c1ccc(Br)cc1", "activity, negative = inhibition": "inactive: 2.78%"}
{"molecule": "O=[N+]([O-])c1ccc(/C=N/n2c(-c3ccccc3)n[nH]c2=S)cc1", "Potency": "inconclusive: 2.51 µM [inhibitor, full curve, poor fit]"}
{"molecule": "C[C@H]1COC2=C1C(=O)C(=O)c1c2ccc2c1CCCC2(C)C", "activity, negative = inhibition": "inactive: -3.64%"}
{"molecule": "Cn1c(=O)c2c([nH]c(=S)n2CCCc2ccccc2)n(C)c1=O", "Potency": "active: 2.51 µM"}
{"molecule": "CCn1c(CCn2c3ccccc3c3ccccc32)n[nH]c1=S", "Potency": "inconclusive: 20 µM [inhibitor, partial curve, poor fit]"}
{"molecule": "CCCCn1c(-c2sccc2C)n[nH]c1=S", "Potency": "inconclusive: 7.08 µM [inhibitor, full curve]"}
{"molecule": "COc1ccc2nc(-c3ccco3)c(-c3ccco3)nc2c1", "Potency": "inconclusive: 25.1 µM [inhibitor, partial curve]"}
{"molecule": "OCC(O)C(O)C(O)C(O)CO", "note": "(stereo unspecified)", "Potency": "inactive"}
{"molecule": "CCCCCC1Nc2cc(C(F)(F)F)c(S(N)(=O)=O)cc2S(=O)(=O)N1", "note": "(stereo unspecified)", "activity, negative = inhibition": "inactive: 4.24%"}
{"molecule": "Cc1c(C)c2ccc(OCC(=O)Nc3ccccn3)c(C)c2oc1=O", "Potency": "inconclusive: 50.1 µM [inhibitor, single point]"}
{"molecule": "CCOC(=O)C(C)(C)N(Cc1ccccc1C)S(=O)(=O)c1ccc(Cl)c([N+](=O)[O-])c1", "Potency": "inconclusive: 25.1 µM [inhibitor, partial curve, poor fit]"}
{"molecule": "COc1ccc(C(=O)CSc2nnc(CCc3ccccc3)n2-c2ccccc2)cc1", "Potency": "inconclusive: 28.2 µM [inhibitor, partial curve, poor fit]"}
{"molecule": "Oc1c(Br)cc(/C=N/n2c(-c3ccccc3)n[nH]c2=S)c(O)c1Br", "Potency": "inconclusive: 39.8 µM [inhibitor, single point]"}
{"molecule": "CCOc1ccc2cc(S(=O)(=O)N3CCOCC3)ccc2c1", "Potency": "inconclusive: 25.1 µM [inhibitor, partial curve, poor fit]"}
{"molecule": "COCc1cc(C)nc2c1C(=O)NC(c1ccc(F)cc1)N2Cc1ccccc1", "note": "(stereo unspecified)", "activity, negative = inhibition": "inactive: 3.34%"}
